Read-outs that look alike come from different tables or passages of the source. No constants are given. Whether binding was seen depends on the method and setting. In cells and extracts the contact can be indirect. Some entries that bind do so weakly or less than the wild type. For part of these data: Tags and fused reporters may be left off the sequences shown. One block for each molecule: values may come before it.
Columns and labels:
Assay in all cases: co-IP; lysate of mouse ESCs expressing the FLAG-tagged bait; treated with 20 μg/ml RNase A for 40 min at 37°C before the Co-IP; anti-FLAG antibody (or control IgG) with Protein A/G magnetic beads overnight at 4°C; 5 washes with lysis buffer; Western blot
[1] = molecular target: FLAG-tagged Cnot8 FL (normal Cnot8 full length) (mouse) (UniProt Q9D8X5)
FLAG-Tob1 (mouse) = molecular target: T1, FLAG-Tob1 (mouse) (UniProt Q61471)
T1 sequence: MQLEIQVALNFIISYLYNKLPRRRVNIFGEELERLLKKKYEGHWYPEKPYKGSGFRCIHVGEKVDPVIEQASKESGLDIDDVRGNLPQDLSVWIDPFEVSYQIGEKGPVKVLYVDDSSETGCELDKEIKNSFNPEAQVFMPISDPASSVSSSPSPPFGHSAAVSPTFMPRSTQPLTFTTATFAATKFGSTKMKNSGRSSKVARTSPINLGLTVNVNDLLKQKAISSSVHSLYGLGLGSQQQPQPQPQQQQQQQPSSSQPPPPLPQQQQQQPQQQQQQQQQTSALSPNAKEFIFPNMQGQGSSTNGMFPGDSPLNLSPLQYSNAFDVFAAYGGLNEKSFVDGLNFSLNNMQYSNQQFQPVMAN

By UniProt entry, the sequences of proteins in these tests, tags left out. Where a name states a change or a piece, a line headed by the entry shows the natural chain unless it says otherwise.
UniProt Q9D8X5: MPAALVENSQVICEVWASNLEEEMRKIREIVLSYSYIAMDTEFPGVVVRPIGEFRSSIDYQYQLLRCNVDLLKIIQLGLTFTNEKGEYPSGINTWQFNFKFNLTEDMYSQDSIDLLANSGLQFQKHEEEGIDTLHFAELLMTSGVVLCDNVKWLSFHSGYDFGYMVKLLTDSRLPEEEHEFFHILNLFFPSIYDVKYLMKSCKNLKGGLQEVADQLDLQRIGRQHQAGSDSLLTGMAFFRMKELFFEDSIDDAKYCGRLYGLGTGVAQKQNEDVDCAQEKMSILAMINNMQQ
UniProt Q60809: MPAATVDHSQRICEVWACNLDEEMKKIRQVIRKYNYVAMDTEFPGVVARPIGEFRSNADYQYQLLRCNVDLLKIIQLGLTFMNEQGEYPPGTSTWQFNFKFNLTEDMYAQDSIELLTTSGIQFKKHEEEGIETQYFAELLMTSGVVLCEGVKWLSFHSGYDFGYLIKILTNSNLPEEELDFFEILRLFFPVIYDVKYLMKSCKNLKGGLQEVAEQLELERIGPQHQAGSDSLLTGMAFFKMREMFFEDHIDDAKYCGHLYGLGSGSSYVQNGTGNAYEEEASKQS
UniProt P29341: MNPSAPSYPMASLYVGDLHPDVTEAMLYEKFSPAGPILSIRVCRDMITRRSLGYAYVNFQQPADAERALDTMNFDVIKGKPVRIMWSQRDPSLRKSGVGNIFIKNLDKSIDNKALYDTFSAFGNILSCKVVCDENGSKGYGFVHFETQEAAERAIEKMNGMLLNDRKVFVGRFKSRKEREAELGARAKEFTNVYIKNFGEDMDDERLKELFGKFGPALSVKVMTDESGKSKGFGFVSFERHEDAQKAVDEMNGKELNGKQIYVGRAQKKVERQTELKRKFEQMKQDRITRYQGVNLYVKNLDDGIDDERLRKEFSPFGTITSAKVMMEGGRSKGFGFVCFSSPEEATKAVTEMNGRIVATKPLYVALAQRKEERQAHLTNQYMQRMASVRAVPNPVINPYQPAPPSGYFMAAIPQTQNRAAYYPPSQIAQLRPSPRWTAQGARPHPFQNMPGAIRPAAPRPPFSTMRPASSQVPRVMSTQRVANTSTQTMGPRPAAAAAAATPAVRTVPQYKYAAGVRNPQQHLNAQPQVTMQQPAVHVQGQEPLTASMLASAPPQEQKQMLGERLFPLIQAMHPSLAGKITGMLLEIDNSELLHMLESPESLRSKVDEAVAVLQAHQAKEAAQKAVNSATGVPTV
UniProt Q6ZQ08: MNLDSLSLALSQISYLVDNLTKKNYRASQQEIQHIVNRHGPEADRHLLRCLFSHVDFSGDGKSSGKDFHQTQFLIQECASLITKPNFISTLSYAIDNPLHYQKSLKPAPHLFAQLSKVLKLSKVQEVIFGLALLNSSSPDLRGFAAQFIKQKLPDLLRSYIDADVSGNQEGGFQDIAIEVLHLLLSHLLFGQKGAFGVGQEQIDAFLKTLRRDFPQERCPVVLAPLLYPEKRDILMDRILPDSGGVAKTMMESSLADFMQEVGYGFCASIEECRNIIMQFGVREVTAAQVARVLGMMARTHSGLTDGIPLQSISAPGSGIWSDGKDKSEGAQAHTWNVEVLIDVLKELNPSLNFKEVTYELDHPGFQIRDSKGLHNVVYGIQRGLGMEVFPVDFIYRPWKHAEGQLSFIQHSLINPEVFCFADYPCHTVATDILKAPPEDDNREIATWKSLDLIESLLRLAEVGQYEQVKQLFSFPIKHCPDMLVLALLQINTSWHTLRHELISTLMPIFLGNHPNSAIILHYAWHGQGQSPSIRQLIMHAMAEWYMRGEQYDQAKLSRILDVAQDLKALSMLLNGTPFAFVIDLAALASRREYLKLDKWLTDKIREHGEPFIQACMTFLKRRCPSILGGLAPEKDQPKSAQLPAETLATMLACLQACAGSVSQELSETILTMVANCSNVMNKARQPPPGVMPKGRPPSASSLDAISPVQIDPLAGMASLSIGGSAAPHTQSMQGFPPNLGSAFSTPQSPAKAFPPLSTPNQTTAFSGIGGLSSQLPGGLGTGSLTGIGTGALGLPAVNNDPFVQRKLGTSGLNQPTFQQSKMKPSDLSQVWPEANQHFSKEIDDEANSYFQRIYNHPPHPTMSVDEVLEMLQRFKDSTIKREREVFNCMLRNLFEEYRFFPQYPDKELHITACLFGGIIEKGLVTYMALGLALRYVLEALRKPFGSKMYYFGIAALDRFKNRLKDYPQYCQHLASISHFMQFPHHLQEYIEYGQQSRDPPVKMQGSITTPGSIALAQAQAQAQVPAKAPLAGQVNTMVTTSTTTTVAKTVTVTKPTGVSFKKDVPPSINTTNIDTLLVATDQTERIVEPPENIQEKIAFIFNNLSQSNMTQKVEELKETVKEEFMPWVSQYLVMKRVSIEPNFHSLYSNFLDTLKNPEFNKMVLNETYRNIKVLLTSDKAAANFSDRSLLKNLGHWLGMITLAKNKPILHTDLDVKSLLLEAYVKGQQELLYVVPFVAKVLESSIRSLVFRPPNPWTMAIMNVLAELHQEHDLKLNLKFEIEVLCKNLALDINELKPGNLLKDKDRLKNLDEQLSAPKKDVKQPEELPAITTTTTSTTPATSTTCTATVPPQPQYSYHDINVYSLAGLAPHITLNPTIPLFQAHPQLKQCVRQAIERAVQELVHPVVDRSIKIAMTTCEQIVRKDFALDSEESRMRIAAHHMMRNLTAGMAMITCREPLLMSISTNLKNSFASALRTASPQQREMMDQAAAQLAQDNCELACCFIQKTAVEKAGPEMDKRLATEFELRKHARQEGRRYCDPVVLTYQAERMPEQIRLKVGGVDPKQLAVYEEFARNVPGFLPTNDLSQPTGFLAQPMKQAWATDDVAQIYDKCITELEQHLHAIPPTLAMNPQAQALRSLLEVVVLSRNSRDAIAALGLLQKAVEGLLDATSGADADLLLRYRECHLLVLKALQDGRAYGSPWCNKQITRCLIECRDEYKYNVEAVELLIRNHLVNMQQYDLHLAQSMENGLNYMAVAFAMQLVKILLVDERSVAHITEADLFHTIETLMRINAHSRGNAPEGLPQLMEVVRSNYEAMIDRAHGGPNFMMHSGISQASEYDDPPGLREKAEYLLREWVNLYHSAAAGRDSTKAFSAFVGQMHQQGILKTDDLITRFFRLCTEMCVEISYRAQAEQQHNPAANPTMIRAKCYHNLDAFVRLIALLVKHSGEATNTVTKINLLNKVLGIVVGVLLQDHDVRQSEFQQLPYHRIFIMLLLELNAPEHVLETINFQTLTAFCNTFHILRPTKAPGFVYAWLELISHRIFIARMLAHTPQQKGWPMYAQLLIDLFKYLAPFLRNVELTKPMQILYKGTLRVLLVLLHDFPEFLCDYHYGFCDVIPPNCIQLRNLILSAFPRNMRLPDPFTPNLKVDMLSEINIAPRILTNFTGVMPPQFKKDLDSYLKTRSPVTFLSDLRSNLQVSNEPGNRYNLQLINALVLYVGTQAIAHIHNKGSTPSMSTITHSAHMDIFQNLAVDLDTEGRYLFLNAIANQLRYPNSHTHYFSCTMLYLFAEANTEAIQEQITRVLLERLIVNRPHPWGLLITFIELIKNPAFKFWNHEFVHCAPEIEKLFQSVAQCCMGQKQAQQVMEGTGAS

[2] = molecular target: FLAG-tagged Cnot7 FL (mouse) (UniProt Q60809)
[3] = molecular target: FLAG-tagged Cnot7 FL (mouse) (UniProt Q60809); remark: listed apart in the source
[4] = molecular target: 3×FLAG-pHIV-EGFP-Cnot8 E247A/Y260A (Mut3) (mouse) (UniProt Q9D8X5)
[5] = molecular target: FLAG-tagged Cnot8 FL (normal Cnot8 full length) (mouse) (UniProt Q9D8X5); remark: listed apart in the source

Molecule: Cnot8 (from UniProt Q9D8X5 1-292) (enzyme)
binding (FLAG-Tob1 (mouse)): binds

Molecule: cytoplasmic poly(A)-binding protein 1 (Pabpc1) (from UniProt P29341 1-636)
binding (FLAG-Tob1 (mouse)): binds
binding [2]: binds
binding [1]: binds

B1: Tob1 (protein, UniProt Q61471 1-362)
chain: T1 sequence
binding [3]: binds
binding [4]: no binding
binding [5]: binds

Further lines, results first:

binding [1]: binds
Molecule: Cnot1 (from UniProt Q6ZQ08 1-2375)

binding [1]: no binding
Molecule: Cnot7 (from UniProt Q60809 1-285) (enzyme)

Reference: publication PMC9071485
